First the molecules themselves.
B1: Q9UKT9 (peptide)
chain: FLCEICGHVFTQKGNLLRHIKL
B2: Q9UKT9 (peptide)
chain: FGCPICGHMFTQKGNLLRHIKL
B3: Q9UKT9 (peptide)
chain: FMCNQCGAYFTQKGNLLRHIKL
B4: Q9UKT9 (peptide)
chain: FGCEICGASFTQKGNLLRHIKL
B5: Q9UKT9 (peptide)
chain: FKCEVCGAQFTQKGNLLRHIKL
B6: Q9UKT9 (peptide)
chain: LWCPICGFGCTQKGNLLRHIKL
B7: Q9UKT9 (peptide)
chain: FYCNICGAYFTQKGNLLRHIKL
B8: Q9UKT9 (peptide)
chain: FGCPICGHYFTQKGNLLRHIKL
B9: Q9UKT9 (peptide)
chain: FFCDQCGAHFTQKGNLLRHIKL
B10: Q9UKT9 (peptide)
chain: FACPICGAYFTQKGNLLRHIKL
B11: Q9UKT9 (peptide)
chain: FTCPICGRTFTQKGNLLRHIKL
B12: Q9UKT9 (peptide)
chain: FTCDICGAFFTQKGNLLRHIKL
B13: Q9UKT9 (peptide)
chain: FRCNICGAKFTQKGNLLRHIKL
B14: Q9UKT9 (peptide)
chain: FCCPICGRNFTQKGNLLRHIKL
B15: Q9UKT9 (peptide)
chain: LFCNQCGFGCTQKGNLLRHIKL
B16: Q9UKT9 (peptide)
chain: FGCDQCGAMFTQKGNLLRHIKL
B17: Q9UKT9 (peptide)
chain: FCCPICGRKFTQKGNLLRHIKL
B18: Q9UKT9 (peptide)
chain: FYCPICGAKFTQKGNLLRHIKL
B19: Q9UKT9 (peptide)
chain: LLCNQCGFQCTQKGNLLRHIKL
B20: Q9UKT9 (peptide)
chain: FVCNQCGAAFTQKGNLLRHIKL
B21: Q9UKT9 (peptide)
chain: LHCEICGFYCTQKGNLLRHIKL
B22: Q9UKT9 (peptide)
chain: FRCNQCGHAFTQKGNLLRHIKL
B23: Q9UKT9 (peptide)
chain: FNCPQCGAPFTQKGNLLRHIKL
B24: Q9UKT9 (peptide)
chain: FSCPQCGAHFTQKGNLLRHIKL
B25: Q9UKT9 (peptide)
chain: FWCPICGRVFTQKGNLLRHIKL
B26: Q9UKT9 (peptide)
chain: LGCPICGFKCTQKGNLLRHIKL
B27: Q9UKT9 (peptide)
chain: FVCPICGRDFTQKGNLLRHIKL
B28: Q9UKT9 (peptide)
chain: FGCEICGHYFTQKGNLLRHIKL
B29: Q9UKT9 (peptide)
chain: LICEICGFHCTQKGNLLRHIKL
B30: Q9UKT9 (peptide)
chain: FDCSVCGHGFTQKGNLLRHIKL
B31: Q9UKT9 (peptide)
chain: FDCPQCGADFTQKGNLLRHIKL
B32: Q9UKT9 (peptide)
chain: FFCPICGHEFTQKGNLLRHIKL
B33: Q9UKT9 (peptide)
chain: FLCDVCGANFTQKGNLLRHIKL
B34: Q9UKT9 (peptide)
chain: FFCNQCGRAFTQKGNLLRHIKL
B35: Q9UKT9 (peptide)
chain: FDCPVCGAGFTQKGNLLRHIKL
B36: Q9UKT9 (peptide)
chain: FCCEICGHGFTQKGNLLRHIKL
B37: Q9UKT9 (peptide)
chain: LMCPICGFHCTQKGNLLRHIKL
B38: Q9UKT9 (peptide)
chain: FCCPICGHQFTQKGNLLRHIKL
B39: Q9UKT9 (peptide)
chain: LQCNQCGFYCTQKGNLLRHIKL
B40: Q9UKT9 (peptide)
chain: LFCNQCGFVCTQKGNLLRHIKL
B41: Q9UKT9 (peptide)
chain: FKCEQCGATFTQKGNLLRHIKL
B42: Q9UKT9 (peptide)
chain: LVCPICGFRCTQKGNLLRHIKL
B43: Q9UKT9 (peptide)
chain: FRCDVCGAVFTQKGNLLRHIKL
B44: Q9UKT9 (peptide)
chain: LECEICGFHCTQKGNLLRHIKL
B45: Q9UKT9 (peptide)
chain: FFCPICGHVFTQKGNLLRHIKL
B46: Q9UKT9 (peptide)
chain: LVCNQCGFYCTQKGNLLRHIKL
B47: Q9UKT9 (peptide)
chain: FGCNVCGAEFTQKGNLLRHIKL
B48: Q9UKT9 (peptide)
chain: FWCEVCGAKFTQKGNLLRHIKL
B49: Q9UKT9 (peptide)
chain: FSCPICGRHFTQKGNLLRHIKL
B50: Q9UKT9 (peptide)
chain: LECPICGFCCTQKGNLLRHIKL

The other results are listed elsewhere or left out.
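Further: jurkat cells carrying a lentiviral library of mutant zinc finger degrons fused to EGFP plus mCherry, mCherry+ cells FACS sorted, degron abundance counted by next-generation sequencing.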

The experiment deals with no compound (DMSO). Description: log2 fold change of degron read counts, EGFP-low vs EGFP+ sorted cells; higher = lower degron-EGFP level without compound (poor expression or instability). The note with it: compound: DMSO control; 18 h.
For B1, the “log2 fold change of degron read counts” value is -0.0869. For the sequence B2, the “log2 fold change of degron read counts” value was -0.384. In the case of B3 it was 0.503. Regarding B4, the “log2 fold change of degron read counts” value was -0.963. Regarding B5, the “log2 fold change of degron read counts” value is -3.02. As to B6, the “log2 fold change of degron read counts” value turned out to be 2.56. The same measure for B7: 0.509; for B8: 0.648. Regarding B9, the “log2 fold change of degron read counts” value was -0.79. On to B10, for which the “log2 fold change of degron read counts” value was determined as 0.973. As to B11, the “log2 fold change of degron read counts” value is -0.476. On to B12, for which the “log2 fold change of degron read counts” value is -0.49. In the case of B13, the “log2 fold change of degron read counts” value is -1.02. As to B14, the “log2 fold change of degron read counts” value was -0.102. The same measure for B15: 0.919. As for B16, the “log2 fold change of degron read counts” value was -0.937.

For B17, the “log2 fold change of degron read counts” value was -2.08.

In the case of B18, the “log2 fold change of degron read counts” value was -1.06. Turning to B19, the “log2 fold change of degron read counts” value came out at 0.421. In the case of B20 it was -0.279. For the sequence B21, the “log2 fold change of degron read counts” value was 1.03. The same measure for B22: -0.104.

As to B23, the “log2 fold change of degron read counts” value was -0.642. B24: the “log2 fold change of degron read counts” value is -0.252. As to B25, the “log2 fold change of degron read counts” value turned out to be 0.742. B26: the “log2 fold change of degron read counts” value was 1.07. In the case of B27, the “log2 fold change of degron read counts” value is -0.0299. Regarding B28, the “log2 fold change of degron read counts” value was -0.101.

As for B29, the “log2 fold change of degron read counts” value came to 0.0919. B30: the “log2 fold change of degron read counts” value stood at 0.304. On to B31, for which the “log2 fold change of degron read counts” value is -2.05.

As for B32, the “log2 fold change of degron read counts” value was -0.71. The same measure for B33: -1.64; for B34: 0.476; for B35: -1.24. In the case of B36 it was -0.988.

Turning to B37, the “log2 fold change of degron read counts” value stood at 0.684. Regarding B38, the “log2 fold change of degron read counts” value came out at 0.0414. Regarding B39, the “log2 fold change of degron read counts” value was 0.855. As for B40, the “log2 fold change of degron read counts” value was 1.48.

For the sequence B41, the “log2 fold change of degron read counts” value was -2.92. For the sequence B42, the “log2 fold change of degron read counts” value worked out at 0.711. B43: the “log2 fold change of degron read counts” value is -1.26. With B44, the “log2 fold change of degron read counts” value is -1.27. For B45, the “log2 fold change of degron read counts” value came out at 0.281. With B46, the “log2 fold change of degron read counts” value was 1.02. Turning to B47, the “log2 fold change of degron read counts” value is -2.14. Turning to B48, the “log2 fold change of degron read counts” value was -1.26. For B49, the “log2 fold change of degron read counts” value worked out at 0.0325.

B50: the “log2 fold change of degron read counts” value stood at 0.687.
